According to PMC12040169 (PLOS Biology, 2025):
The other results are listed elsewhere or left out.

Test system: T1, C. trachomatis L2/434/Bu expressing GFP (CTL2-GFP)
T1 construct: L2/434/Bu GFP intracellular growth in HeLa cells
Design: species or system HeLa; C. trachomatis total inclusion area by high-content imaging, normalised to DMSO
Settings: total inclusion area; 28.5 h, 10 µM; inhibitor
In short: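 Host cell viability was gauged from Hoechst-stained nuclei counts, while chlamydial growth was taken from total inclusion area and inclusion number per well. Cells were fixed and imaged by high-content microscopy once bulk GFP and resorufin fluorescence had been measured.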

Compound | % of control remaining
O=C(N[C@@H](Cn1cc(Cl)c(=O)[nH]c1=O)C(=O)O)C1CC1 [CBK289649] | 99.6305
Cc1ccc(NC(=O)/C=C/C(=O)O)c(NC(=O)c2ccccc2)c1 [CBK286563] | 111.413
CNC(=O)C1(Cc2ccccc2-c2cccc(F)c2)CCN(C(=O)Cc2ccccc2)CC1 [CBK285692] | 108.994
CCCC(=O)NCC1Cc2cc(F)cc(-c3ccc(C(C)=O)s3)c2O1 (stereo not drawn) [CBK306945] | 91.636
Fc1ccccc1CN(CCCn1ccnc1)CC1CCOC1 (stereo not drawn) [CBK283031] | 96.1643
CC(=O)C(Sc1ccc2nnc(-c3ccc(C)cc3)n2n1)C(C)=O [CBK287525] | 97.5991
Cn1ccnc1SCC(=O)Nc1ccc(S(N)(=O)=O)cc1 [CBK263190] | 95.8447
O=C(CN1C(=O)N2CCCN=C2c2ccc(Cl)cc21)N1CCCC1 [CBK284387] | 88.2841
Cn1cc(C2CCCN2C(=O)Cc2csc3ccccc23)cn1 (stereo not drawn) [CBK305066] | 65.8651
Cc1noc(C)c1NC(=O)c1ccccn1 [CBK200299] | 81.1901
CS(=O)(=O)c1ncc(Cl)c(C(=O)N(Cc2ccccc2)c2ccccn2)n1 [CBK269489] | 24.6989
COc1ccc2c(c1)c1nc(C)sc1n2CCN1CCCCC1 [CBK269909C] | 73.8225
CCc1ccc(OC)c(S(=O)(=O)N2CCOCC2)c1 [CBK268214] | 88.4605
Cc1nnc2sc(-c3ccc(CNC(=S)NC(=O)c4ccccc4[N+](=O)[O-])cc3)nn12 [CBK268588] | 103.078
CCC(CC)C(=O)N1CCC(c2nnc3n2CCCCC3)CC1 [CBK284614] | 99.5112
COc1ccc(-c2nn(-c3ccccc3)cc2/C=C2\SC(N3CC(C)OC(C)C3)=NC2=O)cc1F (stereo not drawn) [CBK265613] | 99.4319
O=C(NC(=S)Nc1ccc(-c2ccc(CO)o2)cc1)c1ccc2c(c1)OCCO2 [CBK269038] | 89.0271
C/C(=C(/C(=O)N(N)c1nc2ccccc2s1)C(=O)C(F)(F)F)N1CCC(C(N)=O)CC1 [CBK265758] | 92.716
CC(C)c1cc(C(=O)N2CCN(C)C(=O)C2Cc2ccccc2-c2ccc(F)cc2)[nH]n1 (stereo not drawn) [CBK285833] | 120.074
Cc1ccc(C(=O)NCc2ccc3c(c2)CCO3)c(N2CCOCC2)n1 [CBK106202] | 79.9929

Compound | % of control remaining
Nc1nnc(SC/C=C/CSc2nnc(N)s2)s1 [CBK263092] | 97.8023
O=S(=O)(NCCCn1ccnc1)c1cc(Cl)ccc1Cl [CBK261767] | 101.679
Cc1cc(C)n(CCCC(=O)N2C[C@H]3CCc4c[nH]nc4[C@H]3C2)n1 [CBK284573] | 62.7867
O=C(Cn1c(=O)n(Cc2cccs2)c2ncccc21)N1CCCC1 [CBK283894] | 65.9331
COCCN1C(=O)C2(CC(=O)N(CCc3scnc3C)C2=O)c2cc(Cl)ccc21 (stereo not drawn) [CBK075321] | 89.2587
O=[N+]([O-])c1ccc(-c2ccc(/C=N/Nc3nnc4c(n3)[nH]c3ccccc34)o2)cc1 [CBK262029] | 98.3959
C#CCN(C1CCc2ccccc21)S(=O)(=O)c1cc(C(N)=O)n(C)c1 (stereo not drawn) [CBK304287] | 24.2317
CC(C)[C@@H](CO)Nc1cncc(-c2cccnc2)n1 [CBK065467] | 73.821
O=C(c1ccccc1)N1C[C@@H](c2ccsc2)[C@@H]2CN(Cc3ccccc3)CC[C@@H]21 [CBK285602] | 84.6681
COc1cccc(C(=O)COC(=O)c2ccc3c(c2)C(=O)N(c2ccc(C(C)=O)cc2)C3=O)c1 [CBK264872] | 105.472
O=C(CCCn1ccnc1)NC(Cc1cccs1)c1nccs1 (stereo not drawn) [CBK285094] | 99.0552
O=S(=O)(Cc1ccc(Cl)cc1)NCCCn1ccnc1 [CBK268372] | 80.1557
COc1ccc(-c2cc(C(=O)NCC(F)(F)F)cnc2-c2ccc(Cl)cc2)cn1 [CBK036698] | 88.0038
COc1ccc(C(=O)N2CCC3(CCN(Cc4ccc(OC(F)(F)F)cc4)C3)C2)cc1OC (stereo not drawn) [CBK132148] | 76.8469
CC(C)(C)OC(=O)N1CCC[C@]2(CCC(=O)N2)[C@H]1c1cccc(F)c1 [CBK283463] | 129.766
Cc1nc(C2CCCN(C(=O)c3cnn(C)c3)C2)c2sccn12 (stereo not drawn) [CBK285236] | 110.336
Cc1ccc(C(=O)Nc2ccc(N3CCCCC3)c(F)c2)c(=O)n1C [CBK281390] | 108.826
CC(=O)c1ccc(NC(=O)c2cccc(S(=O)(=O)N3CCCCC3)c2)cc1 [CBK263246] | 96.7735
O=C(O)Cn1c2ccc(Br)cc2c2nc3ccccc3nc21 [CBK266416] | 157.235
